The campaign covered roughly 310,000 compounds. About 14,000 (4.5%) showed an effect of 50% or more. The effect is printed as a negative number. The list shows a part of the results.
Biological target: human ether-à-go-go-related gene (hERG) potassium channel (human, UniProt Q12809)
Experiment: primary screen, population patch clamp on CHO cells stably expressing hERG
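Further: peak tail current of the secondary pulse compared with the same well before compound.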

Sequence of human ether-à-go-go-related gene (hERG) potassium channel (Q12809 whole entry, looked up): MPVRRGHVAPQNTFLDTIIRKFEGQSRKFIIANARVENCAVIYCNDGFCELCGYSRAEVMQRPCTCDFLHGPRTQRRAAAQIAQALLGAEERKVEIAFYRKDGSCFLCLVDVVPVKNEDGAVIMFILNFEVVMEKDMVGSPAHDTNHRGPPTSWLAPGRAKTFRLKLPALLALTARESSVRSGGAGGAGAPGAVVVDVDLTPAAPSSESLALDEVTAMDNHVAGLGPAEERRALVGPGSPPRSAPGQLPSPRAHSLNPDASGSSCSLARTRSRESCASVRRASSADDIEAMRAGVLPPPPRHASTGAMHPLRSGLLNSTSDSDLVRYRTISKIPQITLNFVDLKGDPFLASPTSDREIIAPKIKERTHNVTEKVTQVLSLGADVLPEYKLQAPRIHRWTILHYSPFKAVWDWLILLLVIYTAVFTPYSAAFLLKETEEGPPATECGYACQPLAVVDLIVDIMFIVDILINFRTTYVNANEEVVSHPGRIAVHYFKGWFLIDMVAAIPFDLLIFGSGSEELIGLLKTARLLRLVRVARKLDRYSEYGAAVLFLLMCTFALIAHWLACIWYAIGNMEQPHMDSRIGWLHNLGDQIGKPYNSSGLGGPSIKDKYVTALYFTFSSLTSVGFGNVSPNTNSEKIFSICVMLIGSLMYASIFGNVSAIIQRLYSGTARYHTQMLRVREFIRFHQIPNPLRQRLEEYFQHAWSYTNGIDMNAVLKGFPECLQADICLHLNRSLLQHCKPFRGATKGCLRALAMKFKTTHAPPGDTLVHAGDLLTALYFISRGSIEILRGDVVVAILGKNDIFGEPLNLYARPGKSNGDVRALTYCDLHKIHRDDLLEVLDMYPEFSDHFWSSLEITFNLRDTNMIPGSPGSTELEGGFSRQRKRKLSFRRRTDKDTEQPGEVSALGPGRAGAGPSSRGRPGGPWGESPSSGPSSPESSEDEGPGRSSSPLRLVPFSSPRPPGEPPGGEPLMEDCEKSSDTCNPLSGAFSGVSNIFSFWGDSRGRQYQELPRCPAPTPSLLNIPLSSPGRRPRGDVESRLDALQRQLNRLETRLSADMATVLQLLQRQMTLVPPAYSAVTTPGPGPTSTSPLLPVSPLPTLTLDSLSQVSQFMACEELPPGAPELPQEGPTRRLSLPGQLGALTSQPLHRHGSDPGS

SMILES	hERG current change (%, negative = inhibition) at 10uM [%]
COc1ccc(/C=C\C(=O)CC(O)(c2ccccc2)C(F)(F)F)cc1 (stereo not shown)	3.32
CCN(CC)CCNC(=O)Cn1cnc2sc(C)c(S(=O)(=O)N3CC(C)CC(C)C3)c2c1=O (stereo not shown)	24.8
O=C(COC(=O)c1ccc2ccccc2c1O)NCC(F)(F)F	-3.05
CC(C(=O)N1CCN(C)CC1)N1C(=O)c2ccccc2C1=O (stereo not shown)	15.9
Cc1cc(C)n(C(=O)c2ccc(Cl)c(F)c2F)n1	1.58
COc1ccc(OC)c(C(=O)c2ccc(C(=O)N3CCN(Cc4csc(C)n4)CC3)cc2)c1	15.8
O=[N+]([O-])c1cccc(/C=N\N2CCN(c3ccc(Cl)cc3)CC2)c1	7.38
CC(=O)Oc1ccc(-c2ccc(C(=O)O)cc2)cc1	0.515
CCN(CC)C(=O)c1ccc(NC(=O)c2cccc(C(F)(F)F)c2)cc1	4.47
O=C1NC(CCc2ccccc2)C(=O)N1Cc1ccc(Br)cc1 (stereo not shown)	-12.9
O=C(Cc1c(O)c2ccccc2[nH]c1=O)NCc1cccc(F)c1	-12.7
O=[N+]([O-])c1ccc(N2CCN(Cc3ccc4c(c3)OCO4)CC2)nc1	-54.4
COc1cc(/C=C/C(=O)OCC(=O)Nc2ccccc2Cl)cc(OC)c1OC	17.1
COc1ccccc1-c1nc(SCC(=O)N2CCOCC2)n[nH]1	16.9
CCOc1ccccc1-n1c(SCC(N)=O)nnc1-c1ccco1	-22.7
CC(C)C(c1nnnn1C1CCCC1)N1CCC(C(N)=O)CC1 (stereo not shown)	5.38
CCC(CO)Nc1ncnc2c1cnn2-c1ccc(Cl)cc1 (stereo not shown)	-5.24
C/C(=N\NC(=O)c1nc(C)cc(C)n1)c1ccccc1	-4.12
CN(C)CCCNC(=O)/C(=C\C=C\c1ccccc1)NC(=O)c1ccc([N+](=O)[O-])cc1	-71.2
CCOc1ccc(NC(=O)COc2ccc(C(=O)NCc3cccnc3)cc2OC)cc1	12.2
CCC(C)[C@H]1CN=C(N)N1CC1CCCCC1 (stereo partly shown)	12.6
N#CC1=C(N)Nc2ncnn2C1c1ccc([N+](=O)[O-])cc1 (stereo not shown)	-29
O=[N+]([O-])c1ncn(Cc2ccccc2Cl)n1	13
COc1ccccc1N1CCN(C(=O)c2ccc(N(C)S(=O)(=O)c3ccccc3)cc2)CC1	-35.4
C=CCNC(=S)NNC(=O)COc1ccc2cc(Br)ccc2c1	20.2

Source: PMC4336329 (PLoS ONE, 2015)
